# Data from article PMC4336329 (PLoS ONE, 2015).
# Out of some 310,000 compounds screened, about 2,200 (0.71%) showed an effect of 50% or more. Effects have a minus sign here. The list shows a part of the results.
# Molecular target: human ether-à-go-go-related gene (hERG) potassium channel (human, UniProt Q12809)
# Experiment: primary screen, population patch clamp on CHO cells stably expressing hERG
# human ether-à-go-go-related gene (hERG) potassium channel, sequence (Q12809 whole entry, looked up): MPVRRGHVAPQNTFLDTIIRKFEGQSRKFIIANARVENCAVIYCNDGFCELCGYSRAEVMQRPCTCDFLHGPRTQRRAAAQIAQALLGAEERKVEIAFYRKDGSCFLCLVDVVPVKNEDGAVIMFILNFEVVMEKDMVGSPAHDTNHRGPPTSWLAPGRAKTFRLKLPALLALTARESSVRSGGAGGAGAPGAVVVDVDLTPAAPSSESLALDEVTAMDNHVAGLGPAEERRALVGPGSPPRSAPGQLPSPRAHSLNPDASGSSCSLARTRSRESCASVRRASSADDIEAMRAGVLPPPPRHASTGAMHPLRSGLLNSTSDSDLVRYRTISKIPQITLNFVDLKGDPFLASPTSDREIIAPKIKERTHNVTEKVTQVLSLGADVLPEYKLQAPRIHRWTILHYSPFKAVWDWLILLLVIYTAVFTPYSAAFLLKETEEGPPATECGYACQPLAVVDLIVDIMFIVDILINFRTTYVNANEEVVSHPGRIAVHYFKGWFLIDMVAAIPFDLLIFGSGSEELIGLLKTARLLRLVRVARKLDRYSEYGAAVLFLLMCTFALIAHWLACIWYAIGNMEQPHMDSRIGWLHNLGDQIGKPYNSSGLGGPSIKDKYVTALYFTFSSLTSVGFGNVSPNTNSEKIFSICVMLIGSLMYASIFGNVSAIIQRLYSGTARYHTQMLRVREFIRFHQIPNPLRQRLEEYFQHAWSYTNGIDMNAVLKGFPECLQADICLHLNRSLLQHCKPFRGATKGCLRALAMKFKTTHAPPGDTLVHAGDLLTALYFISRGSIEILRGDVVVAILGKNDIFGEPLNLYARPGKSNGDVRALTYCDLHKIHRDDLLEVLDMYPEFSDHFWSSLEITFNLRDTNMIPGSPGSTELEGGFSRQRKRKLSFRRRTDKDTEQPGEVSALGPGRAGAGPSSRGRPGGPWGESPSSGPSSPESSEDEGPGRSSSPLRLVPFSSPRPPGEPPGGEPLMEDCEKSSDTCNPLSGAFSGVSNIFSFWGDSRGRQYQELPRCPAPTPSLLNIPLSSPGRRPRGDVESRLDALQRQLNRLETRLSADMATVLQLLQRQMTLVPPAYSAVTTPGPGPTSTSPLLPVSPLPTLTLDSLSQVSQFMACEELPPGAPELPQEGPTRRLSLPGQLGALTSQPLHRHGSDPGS
row,Compound,"hERG current change (%, negative = inhibition) at 1uM [%]"
1,CCCn1c(N)c(C(=O)CSc2nnnn2-c2ccc(O)cc2)c(=O)n(C)c1=O,7.35
2,O=C(CCc1ccccc1O)NC1CCCc2ccccc21 (centres unmarked),-3.48
3,O=C(C[n+]1cc(-c2ccccc2)n2c1CCC2)Nc1nc(-c2ccc(F)cc2)cs1.[Cl-],4.85
4,COc1ccc(C(=O)OCC(=O)c2cc(OC)ccc2OC)c(OC)c1,13.3
5,CC(C(=O)Nc1ccc(S(=O)(=O)N2CCOCC2)cc1)N1CCN(c2ccccn2)CC1 (centres unmarked),8.48
6,Cc1ccc(-c2ccc(S(=O)(=O)NCC3CCCO3)cc2)cc1 (centres unmarked),16.2
7,Cc1cc(=O)n2nc(N3CCCC3C(=O)Nc3cccc(F)c3)sc2n1 (centres unmarked),2.56
8,COc1cccc(CNC(=O)COC(=O)C2CCN(c3ccc(C(F)(F)F)cn3)CC2)c1,-4.59
9,CS(=O)(=O)N1CCc2cc(C(=O)N3CCN(c4ccc(F)cc4)CC3)ccc21,9.26
10,Nc1c(C(=O)Nc2ccc3c(c2)OCCO3)nnn1Cc1ccc(F)cc1,8.31
11,O=C(Nc1ccccc1C(=O)N1CCN(c2cccc(Cl)c2)CC1)C1=CSCCO1,12.4
12,O=C(O)c1cccc(Cn2c(Cl)c(/C=N/Nc3ccccc3)sc2=O)c1,20.2
13,Cc1cccc(C)c1NC(=S)N/N=C1\CC2CC=CC12 (centres unmarked),2.82
14,O=C1NCCSC1c1ccccc1 (centres unmarked),15.7
15,COCCNC(=O)C1CCC(=O)N(c2ccc(OC)cc2)C1c1ccc(OC)c(OC)c1 (centres unmarked),7.35
16,CCCN1CCN(C(=O)c2ccccc2-c2nc3ccccc3s2)CC1,-6.92
17,COc1ccccc1NC(=O)CCSc1nc(C)cs1,17.9
18,CCCCC(=O)NS(=O)(=O)c1ccc(NS(C)(=O)=O)cc1,6.85
19,CC(=O)c1ccn(S(=O)(=O)c2ccc(Cl)cc2)c1,12.6
20,CC(=O)c1c(C)[nH]c(C(=O)NC(C)c2ccccc2)c1C (centres unmarked),7.56
21,CCc1ccc(CN2CCC(Oc3ccc(C(=O)NCc4ccccn4)cc3)CC2)o1,12.7
22,C/C(CC1(O)/C(=N/O)CCc2nonc21)=N\O (centres unmarked),13.3

row,Compound,"hERG current change (%, negative = inhibition) at 1uM [%]"
1,COc1cccc2cc(C(C)N(CCCN3CCOCC3)C(=S)Nc3cc(C)ccc3C)oc12 (centres unmarked),13
2,O=S(=O)(c1ccc(Cl)nc1)N1CCN(Cc2ccc3c(c2)OCO3)CC1,15
3,O=C(Nc1ccc2c(c1)OCO2)N1CCN(c2ncc(C(F)(F)F)cc2Cl)CC1,7.69
4,CC(=O)c1ccc(Nc2cnn(C34CC5CC(CC(CC(=O)O)(C5)C3)C4)c(=O)c2Cl)cc1,15.3
5,COc1ccccc1OCCn1cc(C=O)c2ccccc21,12.3
6,CCc1ccc(S(=O)(=O)Nc2ccc(-c3ccc4nnc(C)n4n3)cc2)s1,10.5
7,Cc1noc(C)c1CSc1nnc2scc(-c3ccccc3)n12,-6.47
8,O=C(Nc1ccc(Cl)cn1)c1cccc(F)c1,3.54
9,COc1ccnc(N=CNOCc2ccc(F)cc2Cl)c1C#N,11.8
10,COc1cc(CNc2ccc3[nH]c(=O)[nH]c3c2)cc(Cl)c1OCC(=O)NC(C)(C)C,9.24
11,c1ccc(C(c2ccccc2)c2noc(CN3CCN(CC4CC4)CC3)n2)cc1,-27.1
12,N#Cc1c(C(F)(F)F)cc(-c2ccccc2Cl)[nH]c1=O,-2.5
13,O=C(O)c1cc2nc(C3CC3)cc(C(F)(F)F)n2n1,12
14,Cc1ccc(N2CC(C(=O)NCc3ccc4c(c3)OCO4)CC2=O)cc1C (centres unmarked),6.91
15,CCOC(=O)c1ccc(S(=O)(=O)N2CCN(CC(O)COc3ccc(C#N)cc3)CC2)cc1.O=C(O)C(=O)O (centres unmarked),-10.8
16,CC(=O)C(Sc1nc(N(C)C)nc(N(C)C)n1)C(=O)Nc1ccccc1 (centres unmarked),12.8
17,O=C(Oc1ccc(Br)cc1)C1CC(=O)N(c2ccc(F)cc2)C1 (centres unmarked),12.7
18,Cc1cccc(C(=O)N[C@H](C(=O)Nc2ccc(S(=O)(=O)NC3=NCCCCC3)cc2)C(C)C)c1,10.7
19,O=C1c2cccnc2C(=O)N1Cc1ccc(S(=O)(=O)NCc2ccco2)cc1,12.9
20,COc1ccc(C(=O)Nc2ccc(-c3n[nH]c(=S)o3)cc2)cc1,16.9
21,Cc1occc1C(=O)Nc1cccc(C(=O)NCc2ccccc2)c1,-8.43
22,Cc1cc(-c2ccc(/C=N/n3cnnc3)o2)ccc1Cl,9.22

row,Compound,"hERG current change (%, negative = inhibition) at 1uM [%]"
1,CC(=O)c1cnn(-c2ccc(Cl)c(Cl)c2Cl)c1C,6.24
2,CC1CCN(Cc2nc3c(c(=O)n(C)c(=O)n3C)n2CCCc2ccccc2)CC1,8.43
3,O=C(Nc1ccc(-c2cccc(F)c2)cc1)C1CCCN(Cc2ccccn2)C1 (centres unmarked),3.56
4,CCOCC(=O)Nc1cc(C(=O)Nc2cc(C)cc(C)c2)ccc1Cl,14.3
5,NC(=O)c1ccccc1NC(=O)Nc1cccc(Cl)c1Cl,11.4
6,Cc1ccc(C2C(C#N)=C(N)Oc3n[nH]c(C)c32)cc1 (centres unmarked),9.97
7,O=C(c1cncs1)N1CCCC(CNS(=O)(=O)c2cccs2)C1 (centres unmarked),0.876
8,Cc1cc(C)nc(SCc2nnc(SCC(=O)Nc3cc(C(F)(F)F)ccc3Cl)o2)n1,-0.0846
9,COC(=O)CSc1nc2sccc2c(=O)n1-c1ccccc1,5.57
10,COc1ccc(-c2nnc(SCC(=O)N3CCOCC3)n2C)cc1OC,2.91
11,O=C(c1ccc2c3n(nc2c1)-c1ccc(Cl)cc1CO3)N1CCOCC1,6.59
12,Cc1[nH][nH]c(=O)c1C=Nc1ccc(C(F)(F)F)cc1,15
13,O=C(N/N=C/c1cccnc1)c1cc(Br)ccc1O,19
14,COc1ccc(CCNC(=O)C(=O)NCCCN2CCOCC2)cc1,14
15,Cc1ccc(NC(=O)C(=O)NCCc2c[nH]c3ccccc23)cc1C,8.54
16,COC(=O)C1=C(c2ccc(S(C)(=O)=O)cc2)C[C@@H]2CC[C@H]1N2C(=O)N1CCOCC1,11.6
17,O=C(CC1C(=O)NCCN1Cc1ccc(-c2ccccc2)cc1)NCCCn1ccnc1 (centres unmarked),8.39
18,COc1ccc(/C=N/Nc2nc(-c3ccc(Cl)cc3)cc(C(F)(F)F)n2)cc1OC,12.9
19,CCCn1c(N)c(C(=O)CSc2nc3ncc(Cl)cc3[nH]2)c(=O)[nH]c1=O,6.85
20,Cc1ccc(CONC(=O)c2ccc(Cl)cc2)cc1,12.5
21,CC(OC(=O)c1ccccc1N1C(=O)C2C3CCC(C3)C2C1=O)C(=O)c1ccccc1 (centres unmarked),10.2
22,CC(C)(C)N1C(=O)[C@H]2[C@@H](c3ccc(Br)cc3)N3C(=O)N(c4cccc(F)c4)C(=O)[C@@]3(C)[C@H]2C1=O,11.9

row,Compound,"hERG current change (%, negative = inhibition) at 1uM [%]"
1,COc1ccc(OC)c(/C=N/NC(=O)c2cc[n+](CC(=O)c3ccccc3)cc2)c1.[Br-],2.95
2,C#CCOCCOCCOCCNc1nc(N2CCOCC2)nc(N2CCN(C(=O)[C@H](CCC(=O)O)n3cc(C(N)Cc4ccc(O)cc4)nn3)CC2)n1.Cl (some centres unmarked),-11.7
3,COc1cc(CCC(=O)N2CCN(c3ccccc3)CC2)cc(OC)c1OC,-0.0932
4,O=C(O)CCCCCNCc1c(Cl)cccc1Cl,13.4
5,CCNS(=O)(=O)c1ccc(NC(=O)c2cc(C(F)(F)F)nn2C)cc1,0.646
6,O=C1/C(=C/c2ccc(F)cc2)SC(=S)N1NS(=O)(=O)c1ccccc1,13
7,Cc1cccc(NS(=O)(=O)c2cc(C(=O)N3CCN(C)CC3)ccc2C)c1,-4.91
8,O=C(Cn1ncc(N2CCCC2)c(Br)c1=O)c1ccc(Cl)cc1,-8.73
9,CCCc1cc(=O)[nH]c(Nc2ccc(O)cc2)n1,9.8
10,O=C(Nn1cnnc1)c1ccc(Cl)c([N+](=O)[O-])c1,1.64
11,CCOC(=O)C1(CC2CCCCO2)CCN(C(=O)Nc2ccccc2)CC1 (centres unmarked),16.9
12,Cc1ccccc1OC(=O)Cn1c(C(F)(F)F)nc2ccccc21,10.3
13,COC(=O)C1=C(C)N(C)C(=O)NC1c1ccc(O)c(Cl)c1 (centres unmarked),-9.59
14,CCCn1c(SCC(=O)NCCc2ccccc2)nnc1-c1ccccn1,1.51
15,Cc1nn(C(C)C(=O)NCC2CCCO2)c(=O)c2cc3occc3n12 (centres unmarked),9.59
16,Nc1ncnc(N2CCc3ccccc32)c1[N+](=O)[O-],8.56
17,O=C(Nc1ccc2oc(-c3ccccc3)nc2c1)C1CCCO1 (centres unmarked),11.4
18,O=C(NCC(=O)N(Cc1ccco1)C(C(=O)NC1CCCC1)c1ccncc1)c1cccs1 (centres unmarked),17.6
19,COc1ccc(NC(=O)Cc2nnc(N)s2)cc1,4.62
20,CCCCc1ccc(NC(=O)NCc2cccnc2)cc1,-13.3
